The text below walks through data of the RNAGym collection of RNA variant scans (doi:10.1101/gad.245936.114).

Variants at the floor of the assay are shown more often than the library holds them.

The chains are these.
B1: tRNA (parent)
chain: CUCUCGGUAGCCAAGUUGGUUUAAGGCGCAAGACUUUAAUUUAUCACUACGAAAUCUUGAGAUCGGGCGUUCGACUCGCCCCCGGGAGAUUUUUUCCUCGAGCAA

Variants of B1 are the subject of this data set. The data set can be described thus: nonsense suppression (GFP-seq) (ratio to wild type); higher = more function; SUP4oc tRNA, yeast GFP reporter sort-seq. The method, boiled down: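 Nonsense suppression (GFPSEQ) is the median GFP/RFP ratio of each sorting bin, weighted by the variant's estimated share of cells in that bin and expressed relative to the unmutated parent tRNA. Yeast strains carried genome-integrated variants of an ochre-suppressor tRNA from a library with ~3% random mutations, plus a galactose-driven GFP ochre reporter and RFP, and were grown in raffinose/galactose medium containing 80 mg/L adenine. Cells were sorted into GFP/RFP bins, each bin was Illumina-sequenced (phred ≥30), and variants were kept only with ≥100 reads and ≥30 cells.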
For the variant CUCUCGGUAGCCAAGUUGGUUUAAGGCGUAAGUCUUUAAUUUAUCACUACGAAAUCUUGAGAUCGGGCGUUCGACUCGCCCCCGGGAGAUUUUUUCCUCGAGCAA [C29U A33U], the nonsense suppression is 0.0316.

As for CUCUCGGUAGCCAAGUUGGUUUAAGGCGCAGGACUUUAAUUUAUCACUACGAAAUAUUGAGAUCGGGCGUUCGACUCGCCCCCGGGAGAUUUUUUCCUCGAGCAA [A31G C56A], the nonsense suppression is no more than 0.026.

As to CUCUCGGUAGCCAAGUUGGUUUAAGGCGCAAGACUUUAAUUUAUCACUACGAAAUCUUGAGAUCGGGCGUUCGACUCACCCCUGGGAGAUUUUUUCCUCGAGCAA [G78A C83U], the nonsense suppression turned out to be 0.0266.

Regarding CUCUCGGUAGCCAAGUUGGUUUAAGGCGCAAGACUUUAAUUUAUCACUACGAAAUCUUGAGAUCCGACGUUCGACUCGCCCCCGGGAGAUUUUUUCCUCGAGCAA [G65C G67A], the nonsense suppression was no more than 0.026.

For CUCUCGAUAGCCAAGUUGCUUUAAGGCGCAAGACUUUAAUUUAUCACUACGAAAUCUUGUGAUCGGGCGUUCGACUCGCCCCCGGGAGAUUUUUUCCUCGAGCAA [G7A G19C A60U], the nonsense suppression is no more than 0.026.

As to CUCUCGGUAGCCUAGUUGGUUUAAGGCGCAAGACUUUAAUUUAUCACUACGAAAUCUUGAUAUCGGGCGUUUGACGCGCCCCCGGGAGAUUUUUUCCUCGAGCAA [A13U G61U C72U U76G], the nonsense suppression is no more than 0.026.

CUCUCGGCAGCCAAGUUGGUUUAAGGCCCAAGACUUUAAUUUAUCACUACGAAAUCUUGAGAUCGGGCGUUCGACUCGCCCCCGGGAGAUUUUUUCCUCGAGCAA [U8C G28C]: the nonsense suppression was 0.0327.

As for CUCUCGGUAGCGAAGUUGGUUUAAGGCGCAACACUUUAAUUUAUCACUACGAAAUCUCAAGAUCGGGCGUUCGACUCGCCCCCGGGAGAUUUUUUCCUCGAGCAA [C12G G32C U58C G59A], the nonsense suppression was no more than 0.026.

Turning to CUCUCGGUAGCCAAGUUGGUUUAAGGCUUGCGAUUUUAAUUUAUCACUACGAAAUCUUGAGAUCGGGCGUUCGACUCGCCCCCGGGAGAUUUUUUCCUCGAGCAA [G28U C29U A30G A31C C34U], the nonsense suppression was no more than 0.026.

Turning to CUCUCGGCAGCCAAGUUGGUUUAAGGCGCAAGACUUUAAUUUAUCACUACGAAAUCUAAAGACCGGGCGUUCGACUCGCCCCCGGGAGAUUUUUUCCUCGAGCAA [U8C U58A G59A U63C], the nonsense suppression is no more than 0.026.

In the case of CUCUCGGUAGCCAAGUUGGUUUAAGGCGCAAGACUUUAAUUUAUCACUACGAAAUCUUAAGAUCGGGCGUGCGACUCGCCCCCGCGAGAUUUUUUCCUCGAGCAA [G59A U71G G85C], the nonsense suppression is no more than 0.026.

Regarding GUCUCGGUAGCCAAGUUGGUUUAAGGCGCAAGACUUUAAUUUAUCACUACGAAAUAUUGAGAUCGCGCGUUCGACUCGCCCCCUGGAGAUUUUUUCCUCGAGCAA [C1G C56A G66C G84U], the nonsense suppression is no more than 0.026.

In the case of UUCUCGGUAGCCAAGUUUGUUUAAGGCGCAAUACUUUAAUUUAUCACUACGAAAUCUUGAGAUCGGGCGUUCGACUCGCCCAAGGGAGAUUUUUUCCUCGAGCAA [C1U G18U G32U C82A C83A], the nonsense suppression is no more than 0.026.

For CUCUCGGUAGUCAAGUUCGUUUAAGUCGCAAGACUUUAAUUUAUCACUACGAAAUCGUGUGAUCGGGCGUUCGACACGGUCCCGGGAGAUUUUUUCCUCGAGCAA [C11U G18C G26U U57G A60U U76A C79G C80U], the nonsense suppression was no more than 0.026.

In the case of CUGUUGGUAGCUAAGUUGGUUUAAGGCGCAAGACUUUAAUUUAUCACUACGAAAUCUUGAGAUCGGGCGGGCGACUCGCCCCCGGGAGAUUUUUUCCUCGAGCAA [C3G C5U C12U U70G U71G], the nonsense suppression is no more than 0.026.

As to CUCGCGCUAGCCAAGUUGGUUUAAGGUGCAAGACUUUAAUUUAUCACUACGAAAUCUUGAGAUCGGGCGUACGUGUCGCCCCCGGGAGAUUUUUUCCUCGAGCAA [U4G G7C C27U U71A A74U C75G], the nonsense suppression was no more than 0.026.

Regarding CUCUCGGUAGCCAAGUUGGUCUAAGGCGCAAGACUUUAAUUUAUCACUACGAAAUCUUGAGAUCGGGCGUUCCACUCGCCCCCGGGAGAUUUUUUCCUCGAGCAA [U21C G73C], the nonsense suppression is no more than 0.026.

On to UUCUCGGUAGCCAAGUUGGUUUAAGGCGCACGACUUUAAUUUAUCACUACGAAAUCUUGAGUUCGGGCGUUCGCCUCGCCCCCGGGAGAUUUUUUCCUCGAGCAA [C1U A31C A62U A74C], for which the nonsense suppression is no more than 0.026.

For UUCCCGGUAGCCAAGUUGGUUUAAGGCGCAAGACUUUAAUUUAUCACUACGAAAUCUUGAGAUCGGGCGUUCGACUCGCCCCCGGGAGAUUUUUUCCUCGAGCAA [C1U U4C], the nonsense suppression is no more than 0.026.

Consider CUCUCGGUAGCCAAGUUGGUUUAAGGUGCAAGAACUUAAUUUAUCACUACGAAAUCUUGAGAUCGUGCGUUCGACUCGCCCCCGGGAGAUUUUUUCCUCGAGCAA [C27U C34A U35C G66U], for which the nonsense suppression is no more than 0.026.

On to CUCUCGGUAGCCAAGAUGGUUUAAGGCGAAAGACUUUAAUUUAUCACUACGAAAUCUUGAGAUCUGGCGUUCGACUCGCCCCCGGGAGAUUUUUUCCUCGAGCAA [U16A C29A G65U], for which the nonsense suppression was no more than 0.026.

CUCUCGGUAGCCAGGUUGGUUUAAGGCGCAAGACUUUAAUUUAUCACUACGAAAUCUUGAGAUCAGGCGUCGGACUCGCCCCCGGGAAAUUUUUUCCUCGAGCAA [A14G G65A U71C C72G G88A]: the nonsense suppression was no more than 0.026.

Consider CUCUCGGUAGCCAAGUUGGUUUAAGGCGCAAGACUUUAAUUUAUCACUACGAAAUCCUGAGAACGGGCGUUCGACUAGCCCCCAGGAGAUUUUUUCCUCGAGCAA [U57C U63A C77A G84A], for which the nonsense suppression was no more than 0.026.

Consider CUCUCGGUAGCCAAGUUGUUUUAAGACGCAAGACUUUAAUUUAUCACUACGAAAUCUUGAGAUCGGGCGAUCGACUCGCCCCCGGGAGAUUUUUUCCUCGAGCAA [G19U G26A U70A], for which the nonsense suppression is no more than 0.026.

CUCUCGGUAGCGAAGUUGGUUUAAGGCGCAAGACUUUAAUUUAUCACUACGAAAUCUUGAGAACGGGCGUUCGACUCGCCCCCGGGAAAUUUUUUCCUCGAGCAA [C12G U63A G88A]: the nonsense suppression was no more than 0.026.

Take CUCUCGGUAGCCAAAUUGGUUUAAGGCGCAUGACCUUAAUUUAUCACUACGAAAUCUUGAGAUCGGGCGUUCGACGCGCCCCUGGGAGAUUUUUUCCUCGAGCAA [G15A A31U U35C U76G C83U]: the nonsense suppression was no more than 0.026.

In the case of CUCUCGGUGGCCAAGUUGGUUUAAGGCGCAAGACUUUAAUUUAUCACUACGAAAUCUUGGGAUCGGGCGUCCGACUCGCCCCCGGGAGAUUUUUUCCUCGAGCAA [A9G A60G U71C], the nonsense suppression is no more than 0.026.
